Data published in PubChem BioAssay AID686970 (National Center for Advancing Translational Sciences (NCATS), 2013).
Among all 360,000 compounds or so, about 6,000 (1.7%) were called active. The inconclusive results got no clear call from the source; some entries with a clear call stand among them for comparison. Calls follow the shape of the dose curve; as a rule, active = well fitted cell-killing curve with a large enough effect; inconclusive = small, poorly fitted or top-dose-only effect, or effect the other way; inactive = flat fitted curve, though single readings scatter. Potencies of inconclusive entries are left out as doubtful fits.

Experiment: qHTS for induction of synthetic lethality in tumor cells producing 2HG: qHTS for the HT-1080-NT fibrosarcoma cell line;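 also: NT is the 2HG producing partner of a matched IDH1 knockdown line; nearly all actives have a fitted effect of over 55% in size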;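 as to activity, negative = less viability: 0% = DMSO-treated cells and -100% = media-only wells without cells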
Settings: HT-1080-NT fibrosarcoma viability, CellTiter-Glo ATP luminescence, 48 h; activity, negative = less viability: at 46.1 µM (top of the series) unless noted
Outline: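 Read-out is CellTiter-Glo luminescence after 10 minutes at room temperature, following 48 hours' compound treatment of HT-1080-NT cells (750 cells/well, RPMI, 5% FBS, 37 degrees C).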
Potency is read from the fitted curve at half-maximal effect; tags tell the direction and shape of the fitted curve.

SMILES | Potency | activity, negative = less viability
Oc1ccc(-c2cc(-c3ccc(O)cc3)nc(-c3ccccc3)n2)cc1 | active: 11.6 µM | –
N#C/C(=C\c1cccnc1)c1nc2ccccc2[nH]1 | inconclusive [cytotoxic, partial curve] | –
Cc1ccc(-n2nnnc2SCC(=O)Nc2nc(-c3ccc(F)cc3)cs2)cc1C | inconclusive [cytotoxic, single point] | –
CC1c2cc3c(cc2CCN1C(=O)c1ccc(Cl)cc1)OCCCO3 (stereo not drawn) | inconclusive [cytotoxic, single point] | –
CCOC(=O)c1n[nH]n2c1nc(=S)c1ccccc12 | inactive | –
COc1cc(/C=C/C(=O)c2ccc3c(c2)OCO3)cc(OC)c1OC | inconclusive [cytotoxic, partial curve] | –
CCOC(=O)[C@]12CCCC=C1N(Cc1cccc3ccccc13)C(=O)[C@H](CC(=O)N1CCN(C(=O)c3ccco3)CC1)C2 | inconclusive [cytotoxic, single point] | –
CCOc1ccc2nc(NCCNC(=O)Nc3cccc(C)c3)c(C#N)cc2c1 | inconclusive [cytotoxic, partial curve] | –
Cc1noc(C)c1-c1ccc(C(=O)NCc2cccc(Cl)c2)c2occc12 | – | inconclusive: -34.6%
Cc1cccc(Nc2ncc3c(n2)CC(c2ccco2)CC3=O)c1 (stereo not drawn) | inconclusive [cytotoxic, single point] | –
CC[n+]1c(/C=C/C=C/N(C(C)=O)c2ccccc2)sc2ccccc21 | inconclusive [cytotoxic, single point] | –
C=CC[C@@H](CC(=O)NCCO)C(=O)N[C@@H](COC(=O)[C@@H](CC=C)Cc1ccc(F)cc1)Cc1ccccc1 | inactive | –
Cc1ccc(C(=O)Nc2nc3ccc(S(C)(=O)=O)cc3s2)o1 | active: 20.6 µM | –
COc1ccccc1-c1ncn(Cc2cccc(-c3ccccc3)c2)c1-c1ccco1 | inconclusive [cytotoxic, single point] | –
COc1ccc(OC)c(/C=C/C(=O)c2ccc3c(c2)OCO3)c1 | inconclusive [cytotoxic, single point] | –
Cn1cc(CCC(=O)N2CCCC(N3CCN(c4ccccc4F)CC3)C2)cn1 (stereo not drawn) | inconclusive [rising, partial curve] | –
CCCCCCCCN1C(=O)[C@H](CC(=O)NCc2ccc(C)o2)C[C@@]2(C(=O)OC)CCCCC=C12 | inconclusive [cytotoxic, single point] | –
CCCc1c(C(=O)NNc2ccc(C)cc2)cnn1-c1ccccc1 | inconclusive [cytotoxic, full curve] | –
